Measured values reported in PubChem BioAssay AID1347417 (National Center for Advancing Translational Sciences (NCATS), 2020).
Out of some 120,000 compounds screened, about 5,300 (4.4%) were called active. The shares of active, inactive and inconclusive entries below differ from those in the screen. Calls come from the whole dose curve; as a rule, active = well fitted inhibition curve with a large enough effect; inconclusive = small, poorly fitted or top-dose-only effect; inactive = no such curve, though single readings can be large or run the other way. Where the call is inconclusive, the potency comes from a doubtful curve fit.

experiment: qHTS Primary assay for Inhibitors of Plasmodium falciparum Dd2 growth in vitro; note: nearly all actives have a fitted effect of over 65% in size;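 for activity, negative = inhibition: plate controls were DMSO vehicle for no effect and reference drug for full effect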; settings: P. falciparum Dd2 growth, SYBR Green, 72 h; activity, negative = inhibition: at 28.9 µM (top of the series) unless noted; series mostly up to 28.9 µM
Outline: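 Readout: SYBR Green fluorescence, 485 nm excitation, 535 nm emission, after ~16 h lysis at 37C. Before that, Dd2-infected red cells (2.5% hematocrit) grew 72 h with compound, 29 uM top final concentration.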
Potency is the fitted concentration of half-maximal effect; tags give direction and shape of the fitted curve.

SMILES | Potency | activity, negative = inhibition
O=[S+]1([O-])NCC2(CCN(CC3CCCCC3)C2)Oc2ncccc21 (centres undefined) | inconclusive: 11.2 µM [inhibitor, single point] | –
Cc1ccccc1Cn1cccc(C(=O)Nc2nc3ccccc3s2)c1=O | inconclusive: 7.94 µM [inhibitor, single point] | –
CN(C)CCNC(=O)c1nc2nc(-c3ccccc3)c(-c3ccc(Cl)cc3)cc2n1C | active: 5.01 µM | –
C#C[C@H]1CN2CC[C@H]1C[C@@H]2CNCc1ccc(OC)cc1 | inconclusive: 5.01 µM [inhibitor, partial curve] | –
COc1ccc(C(=O)N2CCC(c3ncc(C)n3C(C)C)C2)cc1 (centres undefined) | inconclusive: 12.6 µM [inhibitor, single point] | –
Cn1cnc(C(=O)N2CCC3(CC2)CC(N(Cc2ccc(F)cc2)C2CC2)CCO3)c1 (centres undefined) | inconclusive: 7.94 µM [inhibitor, partial curve, poor fit] | –
CN(Cc1ccc(C2CCCCO2)s1)CC1CCN(CCc2ccc(F)cc2)CC1 (centres undefined) | inactive | –
CCC(c1cccs1)N1C(=O)[C@H]2CN(S(=O)(=O)c3ccc(F)cc3F)C[C@H]2C1=O (some centres undefined) | inconclusive: 6.31 µM [inhibitor, single point] | –
CC(C)c1cc(N2C[C@H](O)[C@@H](N3CCCCC3)C2)n2nccc2n1 | inconclusive: 11.2 µM [inhibitor, single point] | –
CN(C)c1cccc(-c2cc3c(cn2)CN(Cc2ccncc2)CCN3)c1 | inconclusive: 14.1 µM [inhibitor, single point] | –
O=C(Nc1ccc2oc(-c3ccccc3)nc2c1)C1CCN(c2cnn(Cc3ccccc3)c(=O)c2)C1 (centres undefined) | active: 2.51 µM | –
CCn1cc(S(=O)(=O)N2CCC[C@H](n3c(=O)n(CC4CC4)c4cccnc43)C2)cn1 | inconclusive: 17.8 µM [inhibitor, single point] | –
CNC(=O)CCn1ncc2cc(OCc3ccccc3-c3cccnc3OC)ccc21 | inconclusive: 5.62 µM [inhibitor, single point] | –
O=c1c2c(CO)c(-c3ccc(F)cc3)nn2ccn1CCOc1ccccc1 | inactive | –
CCOC(=O)C1CCN(C(=O)C2COC3(CCCCC3)N2C(=O)c2ccc(CC)cc2)CC1 (centres undefined) | inconclusive: 7.08 µM [inhibitor, partial curve, poor fit] | –
COc1cc2c(cc1OCc1ccccc1)NC(=O)C21CCN(Cc2nccs2)CC1 | inconclusive: 0.891 µM [inhibitor, full curve, poor fit] | –
COCCc1noc(C2Cc3ccccc3N2C(=O)NCC(C)C)n1 (centres undefined) | – | inactive: 13% [at 5.79 µM]
Cc1cccc(CNC(=O)c2ccc3nc(Cc4ccccc4)oc3c2)c1 | inconclusive: 17.8 µM [inhibitor, single point] | –
Cc1cc(C)cc(NC(=O)Cn2c(N3CCOCC3)nc(C)cc2=O)c1 | inconclusive: 3.98 µM [inhibitor, full curve] | –
CCOc1ccc(C2c3[nH]c4ccccc4c3CCN2C(=O)CSCc2ccc(F)cc2)cc1 (centres undefined) | active: 11.2 µM | –
COc1ccc(NC(=O)Cn2ccn3nc4c(c3c2=O)CC(C)CC4)cc1OC (centres undefined) | inconclusive: 20 µM [inhibitor, single point] | –
COc1ccc(NC(=O)Cn2c(=O)n(-c3cccc(C)c3)c(=O)c3c2cc(C)n3C)cc1 | inconclusive: 10 µM [inhibitor, single point] | –

SMILES | Potency | activity, negative = inhibition
COc1ccc(NC(=O)CSc2nnc(NC(=O)NC3CCCCC3)s2)cc1OC | – | inconclusive: -38.5% [inhibitor] [at 5.79 µM]
Cc1ccccc1NC(=O)CN1C(=O)NC(c2ccccc2Cl)C2=C1COC2=O (centres undefined) | inconclusive: 11.2 µM [inhibitor, single point] | –
CC(C)(C)c1ncc(-c2ccccc2)[nH]1 | inconclusive: 15.8 µM [inhibitor, partial curve] | –
CCc1ccc(S(=O)(=O)c2cn(Cc3ccccc3F)c3cc(OC)c(OC)cc3c2=O)cc1 | inconclusive: 17.8 µM [inhibitor, single point] | –
COc1cccc(C(=O)N[C@@H]2CN(c3ccccn3)C[C@H]2CN(C)C)c1 | inactive | –
FC(F)(F)c1cccc(-c2cc(-c3cccnc3)c3cncn3c2)c1 | inconclusive: 3.55 µM [inhibitor, single point] | –
O=C(N1CC[C@@H](c2ccc3ccccc3c2)[C@H](O)C1)C1(Cn2ccnc2)CC1 | inactive | –
O=C(CCCN1C(=O)COc2ccc(C(=O)COc3cccc(Cl)c3)cc21)NCC1CC1 | inconclusive: 3.16 µM [inhibitor, single point] | –
CC1CCN(C(=O)Cn2ccn3nc(-c4ccc(F)cc4)c(CO)c3c2=O)CC1 | inactive | –
OCCn1cnc2cc(-c3n[nH]c(C4CCOC4)n3)ccc21 (centres undefined) | inactive | –
Cc1ccc(CNC(=O)c2c(-c3ccccc3Cl)noc2C)o1 | inconclusive: 17.8 µM [inhibitor, partial curve, poor fit] | –
N#Cc1cccnc1Oc1ccccc1CN1CCCCC1 | inconclusive: 2.82 µM [inhibitor, partial curve, poor fit] | –
CCOc1ccc(CCNC(=O)CCCc2nnc3n(CC)c(=O)c4sccc4n23)cc1OCC | inconclusive: 10 µM [inhibitor, single point] | –
COC(=O)c1ccccc1NC(=O)CSc1nc(=O)cc(N)n1-c1ccccc1 | inactive | –
COc1ccc(CCC(=O)N2CCC3(CC2)CC(N(C(C)=O)C2CC2)CCO3)cc1 (centres undefined) | inactive | –
CN1CCN(Cc2cnn(-c3cccc(Cl)c3)c2)CC1CCO (centres undefined) | active: 14.1 µM | –
CCCN(CC1CCOC1)C(=O)Nc1ccccc1C (centres undefined) | inactive | –
O=C(NCCc1ccncc1)C1CN(S(=O)(=O)c2ccccc2)CC12CCCCC2 (centres undefined) | inconclusive: 11.2 µM [inhibitor, single point] | –
COc1ccc(CNCCC(c2ccc3c(c2)OCO3)c2ccccc2OC)cc1 (centres undefined) | active: 5.01 µM | –
CC(C)CN1C(=O)c2ccccc2C(C(=O)Nc2nccs2)C12CCCC2 (centres undefined) | inconclusive: 1.78 µM [inhibitor, full curve, poor fit] | –
O=C(Cn1cc(S(=O)(=O)Cc2cccc(Cl)c2)c2ccccc21)Nc1ccccc1Cl | inactive | –
CNC(=O)c1cc(-c2ccccc2O)cc2c1OCCN2Cc1cccnc1 | inconclusive: 22.4 µM [inhibitor, single point] | –

SMILES | Potency | activity, negative = inhibition
CC1=C[C@@H](CNC(=O)c2ccccc2)[C@H](C(C)C)C[C@H]1Cc1nc2ccncc2[nH]1 | inconclusive: 2.82 µM [inhibitor, partial curve, poor fit] | –
COc1cccc(CCC(=O)N2CCCN(C)c3ccccc32)c1 | inconclusive: 20 µM [inhibitor, single point] | –
COc1ccc(Cn2cc(C(=O)c3ccc(C)c(C)c3)c(=O)c3ccccc32)cc1 | active: 11.2 µM | –
COc1ccc(-c2nc(C3CC3)nc3c2CCN(Cc2ccc(C(F)(F)F)cc2)CC3)cc1 | inconclusive: 11.2 µM [inhibitor, partial curve, poor fit] | –
Cc1ccc(-c2cc(C(=O)N3CCC(Cc4nncn4CC4CC4)CC3)c3ccccc3n2)cc1C | active: 2.82 µM | –
COc1cc(Cl)c(CN2C[C@H](NC(C)=O)[C@@H](C3CC3)C2)c(OC)c1 | inconclusive: 8.91 µM [inhibitor, partial curve] | –
COC(=O)[C@@H]1Cc2ncn(Cc3ccc(OC)cc3)c2CN1C(=O)C1CCCCC1 | inconclusive: 2.24 µM [inhibitor, partial curve] | –
Cc1noc(C)c1Cc1ccc(C(=O)NCC23CCCC=C2NC(=O)CC3)o1 (centres undefined) | inconclusive: 10 µM [inhibitor, partial curve, poor fit] | –
Cc1nc(N2CCC(C(=O)Nc3ccc(F)c(Cl)c3)CC2)cc(C(F)(F)F)n1 | inconclusive: 17.8 µM [inhibitor, single point] | –
CCCCSc1nc(N)cc(N2CCCC(C(=O)N3CCOCC3)C2)n1 (centres undefined) | inconclusive: 0.316 µM [inhibitor, partial curve, poor fit] | –
CC1(C)C[C@H](NC(=O)c2cccc(F)c2)[C@@]2(CCC(=O)NCc3ccco3)CC[C@](C)(O)C[C@@H]12 | inconclusive: 6.31 µM [inhibitor, partial curve, poor fit] | –
COc1ccnc(CN2CCC3(CC2)CN(CCOc2ccccc2)C(=O)O3)c1OC | inactive | –
O=C(NC1CCCC1)c1ccc2c(c1)N(Cc1ccccc1)C(=O)c1ccccc1S2 | inactive | –
CC1CCN(c2nc3ccc(C(=O)NCc4ccccc4Cl)cc3s2)CC1 | inconclusive: 17.8 µM [inhibitor, single point] | –
c1ccc2c(c1)CCN(Cc1ccc3c(c1)CNCCO3)C2 | inconclusive: 2.82 µM [inhibitor, partial curve, poor fit] | –
CCC(=O)N(C1CCOCC1)C1CCN(S(=O)(=O)c2ccc(F)c(Cl)c2)CC1 | inconclusive: 5.62 µM [inhibitor, single point] | –
Clc1cccc(-c2cnc([C@@H]3COCCN3Cc3ncc[nH]3)[nH]2)c1 | inconclusive: 12.6 µM [inhibitor, partial curve, poor fit] | –
Cc1ccccc1-c1cc(C(=O)NCC[S+](C)(=O)[O-])c2c(c1)N(C)CCO2 | inactive | –
Cc1cccc(OCCc2noc(C3CCN(C(=O)C4CCCC4)C3)n2)c1 (centres undefined) | inconclusive: 7.94 µM [inhibitor, single point] | –
CCN(C(=O)Nc1cn(CC(C)C)c(=O)c2ccccc12)c1cc(C)ccc1C | inconclusive: 8.91 µM [inhibitor, partial curve] | –
